Our source for the binding signal values is paper PMC12136788.

Some of the results follow.

First the molecules themselves.
T1: UNK ZnF1-6 (called full-length) (human, UniProt Q9C0B0 30-357)
T1 sequence: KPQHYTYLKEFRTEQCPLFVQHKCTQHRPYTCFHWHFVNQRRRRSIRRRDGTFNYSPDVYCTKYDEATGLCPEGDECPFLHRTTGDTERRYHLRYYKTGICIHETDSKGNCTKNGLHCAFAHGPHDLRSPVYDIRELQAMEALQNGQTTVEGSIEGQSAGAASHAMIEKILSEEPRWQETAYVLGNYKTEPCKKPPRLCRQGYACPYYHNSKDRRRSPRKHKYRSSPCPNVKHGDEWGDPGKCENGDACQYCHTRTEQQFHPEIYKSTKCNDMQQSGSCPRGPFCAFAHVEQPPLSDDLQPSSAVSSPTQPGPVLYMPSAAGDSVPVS

B1: chr8:129748195:129748500:-|three_prime_utr|ENSG00000147697|control|control|control (ssRNA)
RNA: GGGAGUUCUACAGUCCGACGAUCUCCAGAGAUGCUGGCCCUCGCCCAGUCUAUGCUGUGAGUGUCCUUAUGGGUGCAAGAGAUAGGGCUGUGCCUCUCUGCGUUUCCAGGUGGAGUAGAGACAGUAAUGGGUAGAGACUUUAGCAACAGAGGAUUGAGCAUCA
B2: chr1:156668797:156668898:-|3pUTR|ENSG00000132688|msi1|FALSE|bound_elsewhere (ssRNA)
RNA: GGGAGUUCUACAGUCCGACGAUCUGACGGCACUCCCAUGUGCUGACUCCCCCCAUCCCUGCCACGCUGUGGCCCUGCCUGGCUAGUCCCUGCCUGAAUAAAGUAAUGCCUCCGCUUCAAAGUCUGGACUCUUCUUUCCCCCACCAACAGAGGAUUGAGCAUCA
B3: chr14:88572724:88572825:+|CDS|ENSG00000100722|unk|FALSE|unique (ssRNA)
RNA: GGGAGUUCUACAGUCCGACGAUCGUGACACUUACAUAUGGUUCUUCUCGCCCUUCUAUUGAAAUUUAUCGACCACCUGCAAGUAGAAAUGCAGAUAGUGGUGUUCAUUUAAACAGGUUGCAAUUUCAACAGCAGCAGAAUAGUCAACAGAGGAUUGAGCAUCA
B4: chr12:30637093:30637194:-|CDS|ENSG00000133704|unk|FALSE|bound_elsewhere (ssRNA)
RNA: GGGAGUUCUACAGUCCGACGAUCUGUCUACAUUUUUUUUUUCUUCAAAAUUUGCAGGCAUCAUGACCGGAAGAUGUGUAUAAUAGGACUGAGUAUCCUUUUGGAAUUGCAAAAUCGACCUCCUGCAGUAGAUGCUGUGGUGGGCAACAGAGGAUUGAGCAUCA
B5: ENSG00000124766:be:win_3551|3pUTR|ENSG00000124766|bound_else_gene|NA|bound_elsewhere_windowed (ssRNA)
RNA: GGGAGUUCUACAGUCCGACGAUCCGUUUAAACCACUGGAUCUAUCUAAAUGCCGAUUUGAGUUCGCGACACUAUGUACUGCGUUUUUCAUUCUUGUAUUUGACUAUUUAAUCCUUUCUACUUGUCGCUAAAUAUAAUUGUUUUCAACAGAGGAUUGAGCAUCA
B6: chr1:40238196:40238297:+|CDS|ENSG00000117000|msi1|total|mutant (ssRNA)
RNA: GGGAGUUCUACAGUCCGACGAUCCGGUAUUCCCCAUUUCAGUGUCAUAUUUGCCAAAGGUCAUUUACAAGAAAAACACACCUCCGGAUUCAUUAUAAAAAUAAACAUCAAAUUGGCAGUGACAGAGCAACUCACAAACUAUUACAACAGAGGAUUGAGCAUCA
B7: chr10:110602053:110602155:+|CDS|ENSG00000108055|unk|FALSE|unique (ssRNA)
RNA: GGGAGUUCUACAGUCCGACGAUCCAGUUUGUAAAUUUCUCCGAGCAGAAAGAAAAGUUAAUAAAGCGUCAAGAAGAGUUAGAUAGGGGUUACAAAUCAAUCAUGGAACUGAUGAAUGUACUUGAACUUCGGAAAUAUGAAGCUCAACAGAGGAUUGAGCAUCA
B8: chr12:132722103:132722204:+|3pUTR|ENSG00000247077|msi1|FALSE|unique (ssRNA)
RNA: GGGAGUUCUACAGUCCGACGAUCGCUUCGCCUUUGACCUUCAUGCUGGUCUCGGCUGAGGUGACACGCUAGUGACAGCCCAAUAGGGGGUUACCCUUAUUGAGUAAAAUACUUCAGAUUGACAGCUCAAUCUUAGUUUGCCUCCAACAGAGGAUUGAGCAUCA
B9: chr17:57972098:57972209:-|3pUTR|ENSG00000136451|unk|total|mutant (ssRNA)
RNA: GGGAGUUCUACAGUCCGACGAUCCCCGAAUGUGGUUGUCAGAACCCUGAAAGUAUCCGUUCUAAAAAAAAAAAGAUAUAUACCCGAAGUAAUUGUUUUAUCAAUUCAUUGUAUAAUAAACAGGAGUGAGACUUCAUUGUAUGACAACAGAGGAUUGAGCAUCA
B10: chr1:23094017:23094118:-|CDS|ENSG00000169641|unk|total|mutant (ssRNA)
RNA: GGGAGUUCUACAGUCCGACGAUCCUCCAGAAAGCAGAGGAUGAACUCCUGGAUCUCCAGGACAAGGUGAUUCAGGCAGAAGGCCGCAACUCCAGCAUGUUGGCGGAGAUUGAAGUGCUGCGCCAGCGGGUGCUGAGAAUUGAACAACAGAGGAUUGAGCAUCA
B11: ENSG00000070961:be:win_851|CDS|ENSG00000070961|bound_else_gene|NA|bound_elsewhere_windowed (ssRNA)
RNA: GGGAGUUCUACAGUCCGACGAUCCUGGAAUUAUCUUUACCUUACUUGGAGCUGGAGGUGAAGAGGAAGAGAAGAAAGAUGAGAAGAAAAAGGAAAAGAAAAAUAAGAAACAAGAUGGAGCUAUUGAGAAUCGCAACAAAGCAACAACAGAGGAUUGAGCAUCA
B12: chr1:151800263:151800922:-|three_prime_utr|ENSG00000213171|control|control|control (ssRNA)
RNA: GGGAGUUCUACAGUCCGACGAUCCCAAGUCCGCUUCAGAUACCAAAGGGGAAGACAGAACCAAGGCUGCUUGAACCAGAACCUAGUCCCGAGCAGCACCGCUCUCCUGCACCUCCCGCCUGCGUUGUGCCUCCUGCCGGAGAGCAACAGAGGAUUGAGCAUCA
B13: ENSG00000143742:stop:overlap|stop_codon|ENSG00000143742|stop_codon|NA|stop_codon (ssRNA)
RNA: GGGAGUUCUACAGUCCGACGAUCAAUAUAGGCAUUCUGAUGGGAACUUGUGUGUUAAAGUAACAGAUGAUUUAGUUGAUCAUUAGUUCCUGUUGUUUAAAACUCAUGUGAACCUUUAAGAUGGGCUGAAGAAAAGUGGAUCUGCAACAGAGGAUUGAGCAUCA
B14: ENSG00000147130:stop:overlap|stop_codon|ENSG00000147130|stop_codon|NA|stop_codon (ssRNA)
RNA: GGGAGUUCUACAGUCCGACGAUCAAAAGCGGUUCUGCAACACAACCUGCUUGGGGGCGUACAAGAAGGUGGGGCCGAGGGAGUAGUGCAUUAGAGGGCUGUGGAAGGGGGUGUGGUUCUUGGGUUAUAAAUAAAGGUGGCUGACAACAGAGGAUUGAGCAUCA

The target of this experiment is T1, UNK ZnF1-6 (called full-length). As to the kind of experiment: nsRBNS (natural sequence RNA bind-n-seq); RBNS binding buffer (assumed for nsRBNS): 25 mM Tris pH 7.5, 150 mM KCl, 3 mM MgCl2, 0.01% Triton X-100, 500 ug/ml BSA, 20 U/ml SUPERase-In, 4 C; UNK is unkempt and MSI1 is Musashi-1; names of the RNAs are library labels; protein concentration not given here; high values mean tight binding.
With B1, the binding signal was 0.906 enrichment R. B2 came in with a binding signal of 1.26 enrichment R. As for B3, the figure is 0.593 enrichment R; as for B4, 0.523 enrichment R. B5 displayed a binding signal of 0.628 enrichment R. For B6, the binding signal was determined as 0.703 enrichment R. With B7, the binding signal worked out at 0.451 enrichment R. As for B8, the figure is 0.467 enrichment R.

B9 gave a binding signal of 0.54 enrichment R. Turning to B10, the binding signal is 0.488 enrichment R. In turn, B11 gave a binding signal of 0.976 enrichment R.

With B12, the binding signal amounted to 0.643 enrichment R. B13 yielded a binding signal of 0.904 enrichment R. Take B14: the binding signal was determined as 0.689 enrichment R.
